The record followed here is PMC9911399, “Two distinct binding modes provide the RNA-binding protein RbFox with extraordinary sequence specificity”.

Residue numbers refer to the chain shown, from its start. Some of the results follow.

The labels stand for the following.
T1: RBFOX1 RRM RbFoxmut (Fox-RRM*) (Homo sapiens, UniProt Q9NWB1 109-208, R118D;E147R;N151S;E152T)
T1 sequence: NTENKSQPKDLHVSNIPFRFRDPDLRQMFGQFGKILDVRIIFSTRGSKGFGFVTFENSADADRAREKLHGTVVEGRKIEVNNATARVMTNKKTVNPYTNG

B1: CGUCGCC (DNA:RNA)
RNA: GGGAGACCGGAAUUCAGAUUGUCCCGUCGCCUUAAAUCCCGUCGUAGCCACCA
DNA 1: CAATCTGAATTCCGGTCTCCC
DNA 2: TGGTGGCTACGACGGGATT
B2: CAAAAGU (DNA:RNA)
RNA: B1 RNA with G26A, U27A, C28A, G29A, C30G, C31U
DNA 1: CAATCTGAATTCCGGTCTCCC
DNA 2: TGGTGGCTACGACGGGATT
B3: CAAAGGC (DNA:RNA)
RNA: B1 RNA with G26A, U27A, C28A, C30G
DNA 1: CAATCTGAATTCCGGTCTCCC
DNA 2: TGGTGGCTACGACGGGATT
B4: GUUCGGA (DNA:RNA)
RNA: B1 RNA with C25G, G26U, C30G, C31A
DNA 1: CAATCTGAATTCCGGTCTCCC
DNA 2: TGGTGGCTACGACGGGATT
B5: CAGUGGG (DNA:RNA)
RNA: B1 RNA with G26A, U27G, C28U, C30G, C31G
DNA 1: CAATCTGAATTCCGGTCTCCC
DNA 2: TGGTGGCTACGACGGGATT
B6: AGUUAAG (DNA:RNA)
RNA: B1 RNA with C25A, C28U, G29A, C30A, C31G
DNA 1: CAATCTGAATTCCGGTCTCCC
DNA 2: TGGTGGCTACGACGGGATT
B7: ACGACUC (DNA:RNA)
RNA: B1 RNA with C25A, G26C, U27G, C28A, G29C, C30U
DNA 1: CAATCTGAATTCCGGTCTCCC
DNA 2: TGGTGGCTACGACGGGATT
B8: GGGCGUC (DNA:RNA)
RNA: B1 RNA with C25G, U27G, C30U
DNA 1: CAATCTGAATTCCGGTCTCCC
DNA 2: TGGTGGCTACGACGGGATT
B9: GCAGUAC (DNA:RNA)
RNA: B1 RNA with C25G, G26C, U27A, C28G, G29U, C30A
DNA 1: CAATCTGAATTCCGGTCTCCC
DNA 2: TGGTGGCTACGACGGGATT
B10: UCUUGCA (DNA:RNA)
RNA: B1 RNA with C25U, G26C, C28U, C31A
DNA 1: CAATCTGAATTCCGGTCTCCC
DNA 2: TGGTGGCTACGACGGGATT
B11: UGGCGCU (DNA:RNA)
RNA: B1 RNA with C25U, U27G, C31U
DNA 1: CAATCTGAATTCCGGTCTCCC
DNA 2: TGGTGGCTACGACGGGATT
B12: AGAGUAA (DNA:RNA)
RNA: B1 RNA with C25A, U27A, C28G, G29U, C30A, C31A
DNA 1: CAATCTGAATTCCGGTCTCCC
DNA 2: TGGTGGCTACGACGGGATT
B13: AUCCGCA (DNA:RNA)
RNA: B1 RNA with C25A, G26U, U27C, C31A
DNA 1: CAATCTGAATTCCGGTCTCCC
DNA 2: TGGTGGCTACGACGGGATT
B14: GACGAAG (DNA:RNA)
RNA: GGGAGACCGGAAUUCAGAUUGUCCGACGAAGUUAAAUCCCGUCGUAGCCACCA
DNA 1: CAATCTGAATTCCGGTCTCCC
DNA 2: TGGTGGCTACGACGGGATT
B15: GACGCUU (DNA:RNA)
RNA: B14 RNA with A29C, A30U, G31U
DNA 1: CAATCTGAATTCCGGTCTCCC
DNA 2: TGGTGGCTACGACGGGATT
B16: GUCCAAG (DNA:RNA)
RNA: B14 RNA with A26U, G28C
DNA 1: CAATCTGAATTCCGGTCTCCC
DNA 2: TGGTGGCTACGACGGGATT
B17: CACGCUU (DNA:RNA)
RNA: B14 RNA with G25C, A29C, A30U, G31U
DNA 1: CAATCTGAATTCCGGTCTCCC
DNA 2: TGGTGGCTACGACGGGATT
B18: AUUAAUG (DNA:RNA)
RNA: B14 RNA with G25A, A26U, C27U, G28A, A30U
DNA 1: CAATCTGAATTCCGGTCTCCC
DNA 2: TGGTGGCTACGACGGGATT
B19: AAAUGAU (DNA:RNA)
RNA: B14 RNA with G25A, C27A, G28U, A29G, G31U
DNA 1: CAATCTGAATTCCGGTCTCCC
DNA 2: TGGTGGCTACGACGGGATT
B20: ACACAGU (DNA:RNA)
RNA: B1 RNA with C25A, G26C, U27A, G29A, C30G, C31U
DNA 1: CAATCTGAATTCCGGTCTCCC
DNA 2: TGGTGGCTACGACGGGATT
B21: GUAACGA (DNA:RNA)
RNA: B14 RNA with A26U, C27A, G28A, A29C, A30G, G31A
DNA 1: CAATCTGAATTCCGGTCTCCC
DNA 2: TGGTGGCTACGACGGGATT
B22: CAGGCCG (DNA:RNA)
RNA: B14 RNA with G25C, C27G, A29C, A30C
DNA 1: CAATCTGAATTCCGGTCTCCC
DNA 2: TGGTGGCTACGACGGGATT
B23: UUGCGCU (DNA:RNA)
RNA: B1 RNA with C25U, G26U, U27G, C31U
DNA 1: CAATCTGAATTCCGGTCTCCC
DNA 2: TGGTGGCTACGACGGGATT
B24: CGCAGGC (DNA:RNA)
RNA: B1 RNA with U27C, C28A, C30G
DNA 1: CAATCTGAATTCCGGTCTCCC
DNA 2: TGGTGGCTACGACGGGATT
B25: UUCUGUA (DNA:RNA)
RNA: B1 RNA with C25U, G26U, U27C, C28U, C30U, C31A
DNA 1: CAATCTGAATTCCGGTCTCCC
DNA 2: TGGTGGCTACGACGGGATT
B26: AUAGAUC (DNA:RNA)
RNA: B14 RNA with G25A, A26U, C27A, A30U, G31C
DNA 1: CAATCTGAATTCCGGTCTCCC
DNA 2: TGGTGGCTACGACGGGATT
B27: GAGGUGA (DNA:RNA)
RNA: B14 RNA with C27G, A29U, A30G, G31A
DNA 1: CAATCTGAATTCCGGTCTCCC
DNA 2: TGGTGGCTACGACGGGATT
B28: CAGAGCG (DNA:RNA)
RNA: B1 RNA with G26A, U27G, C28A, C31G
DNA 1: CAATCTGAATTCCGGTCTCCC
DNA 2: TGGTGGCTACGACGGGATT
B29: ACGCGAC (DNA:RNA)
RNA: B1 RNA with C25A, G26C, U27G, C30A
DNA 1: CAATCTGAATTCCGGTCTCCC
DNA 2: TGGTGGCTACGACGGGATT
B30: UCAAGUC (DNA:RNA)
RNA: B1 RNA with C25U, G26C, U27A, C28A, C30U
DNA 1: CAATCTGAATTCCGGTCTCCC
DNA 2: TGGTGGCTACGACGGGATT
B31: UCUAUCG (DNA:RNA)
RNA: B1 RNA with C25U, G26C, C28A, G29U, C31G
DNA 1: CAATCTGAATTCCGGTCTCCC
DNA 2: TGGTGGCTACGACGGGATT

The target in the test is T1, RBFOX1 RRM RbFoxmut (Fox-RRM*). Kind of test: EMSA; HiTS-Eq, 1 nM pool, 10 min; buffer printed only for the single-RNA assays: 10 mM Tris pH 7.5, 150 mM NaCl, 3.4 mM EDTA, 0.001% NP-40, 30 C. The conditions noted are these: tags: His6 N-terminal (pET28a); label: 5' 32P. The method in brief: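 Purified wild-type or mutant RbFox RRM at increasing concentrations was equilibrated with 1 nM of 5′-radiolabelled RNA carrying 7 randomized nucleotides for 10 min in 50 µL. Unbound RNA was separated by 8% native PAGE and sequenced. Relative association constants came from read-count changes of each RNA species compared with the control reaction, normalised to the cognate motif.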
For orientation: Mobility shift assays separate free from complexed probe on a gel.
With B1, the binding signal is 0.0841 KA relative to UGCAUGU.

As to B2, the binding signal is 0.0967 KA relative to UGCAUGU.

On to B3, for which the binding signal is 0.0684 KA relative to UGCAUGU. For B4 the value was 0.0772 KA relative to UGCAUGU; for B5, 0.0954 KA relative to UGCAUGU; for B6, 0.111 KA relative to UGCAUGU. For B7 the value was 0.063 KA relative to UGCAUGU; for B8, 0.194 KA relative to UGCAUGU; for B9, 0.0672 KA relative to UGCAUGU. For B10 the value was 0.205 KA relative to UGCAUGU; for B11, 0.0925 KA relative to UGCAUGU. As to B12, the binding signal was 0.128 KA relative to UGCAUGU.

On to B13, for which the binding signal is 0.167 KA relative to UGCAUGU.

On to B14, for which the binding signal was 0.0616 KA relative to UGCAUGU. For B15 the value was 0.0757 KA relative to UGCAUGU. For B16 the value was 0.104 KA relative to UGCAUGU; for B17, 0.103 KA relative to UGCAUGU.

On to B18, for which the binding signal was 0.124 KA relative to UGCAUGU. For B19 the value was 0.0684 KA relative to UGCAUGU; for B20, 0.0829 KA relative to UGCAUGU. For B21 the value was 0.075 KA relative to UGCAUGU.

For the molecule B22, the binding signal is 0.0943 KA relative to UGCAUGU.

Regarding B23, the binding signal was 0.112 KA relative to UGCAUGU. For B24 the value was 0.0734 KA relative to UGCAUGU; for B25, 0.166 KA relative to UGCAUGU; for B26, 0.0819 KA relative to UGCAUGU. For B27 the value was 0.11 KA relative to UGCAUGU; for B28, 0.109 KA relative to UGCAUGU; for B29, 0.0755 KA relative to UGCAUGU. For B30 the value was 0.0744 KA relative to UGCAUGU; for B31, 0.106 KA relative to UGCAUGU.
